# Assay results published in the supplement of paper PMC9446081.
# About 220 (0.56%) of roughly 39,000 compounds showed activity. This is one part of the list.
# System: Escherichia coli K-12 BW25113
# Test: relative growth (OD600 normalised to plate interquartile mean) (fraction); higher = less growth inhibition, active = 0.2 or less
# Conditions: 50 µM; LB; incubation time: overnight (16-24 h)
# 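Further: static incubation at 37 °C against the wild-type strain, values averaged over two biological replicates.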
row,SMILES,relative growth
1,C[C@@H]1CN([C@H](C)CO)C(=O)Cc2cc(NC(=O)NC3CCCCC3)ccc2O[C@H]1CN(C)Cc1ccc(Oc2ccccc2)cc1,inactive: 1.07
2,CCN(CC)CCOCCOC(=O)C(CC)(CC)c1ccccc1.O=C(O)CC(O)(CC(=O)O)C(=O)O,inactive: 1.1
3,c1cc(CNC2CCCC2)cs1,inactive: 0.968
4,COc1ccc(NC(=O)N(C)C[C@H]2Oc3ccc(NS(=O)(=O)c4c(C)noc4C)cc3CC(=O)N([C@H](C)CO)C[C@H]2C)cc1,inactive: 0.95
5,C[C@H]1CN([C@@H](C)CO)C(=O)c2cc(NC(=O)Cc3ccccc3)ccc2O[C@H]1CN(C)Cc1ccc(Oc2ccccc2)cc1,inactive: 0.989
6,CC(C)NC(=O)Nc1ccc2c(c1)C(=O)N([C@@H](C)CO)C[C@H](C)[C@@H](CN(C)S(C)(=O)=O)OCCCC[C@H](C)O2,inactive: 1.02
7,C[C@H]1CCCCO[C@@H](CN(C)C(=O)c2ccccc2)[C@@H](C)CN([C@@H](C)CO)C(=O)c2cc(NC(=O)C3CCCCC3)ccc2O1,inactive: 0.984
8,O=C(O)c1cnc[nH]1,inactive: 0.909
9,CO[C@@H]1CN(C)C(=O)c2cc(NS(=O)(=O)CC(F)(F)F)ccc2OC[C@@H](C)N(Cc2nccs2)C[C@H]1C,inactive: 0.997
10,C[C@@H]1CCCCO[C@@H](CN(C)C(=O)Nc2ccccc2)[C@H](C)CN([C@@H](C)CO)C(=O)c2cc(NC(=O)Nc3ccccc3)ccc2O1,inactive: 1.04
11,C[C@@H]1CN([C@@H](C)CO)C(=O)c2cccc(NC(=O)C3CC3)c2O[C@H]1CN(C)C(=O)NC1CCCCC1,inactive: 1
12,Cc1noc(C)c1NC(=O)N(C)C[C@@H]1Oc2ccc(NC(=O)C3CC3)cc2CC(=O)N([C@@H](C)CO)C[C@H]1C,inactive: 0.994
13,CCn1c(-n2nc(C)cc2C)nc2c1c(=O)n(CC(N)=O)c(=O)n2C,inactive: 0.997
14,COc1ccc(NC(=O)Nc2ccc3c(c2)CC(=O)N([C@@H](C)CO)C[C@@H](C)[C@H](CN(C)Cc2ccc(-c4ccccc4)cc2)O3)cc1,inactive: 0.968
15,CC(C)(C)Cc1ccc(OCCCC(=O)O)c(CC(C)(C)C)c1,inactive: 1.04
16,O=C1NC2=C(C(=O)OC2)[C@H](c2ccccc2)N1,inactive: 0.96
17,C[C@@H]1CN([C@H](C)CO)C(=O)Cc2cc(NC(=O)CCC(F)(F)F)ccc2O[C@H]1CN(C)C(=O)Nc1cccc2ccccc12,inactive: 0.991
18,COCC(=O)Nc1ccc2c(c1)C(=O)N(C)C[C@H](OC)[C@@H](C)CN(Cc1ccccc1OC)[C@H](C)CO2,inactive: 0.976
19,O=C(O)Cc1cccc(OCCCN(Cc2cccc(C(F)(F)F)c2Cl)CC(c2ccccc2)c2ccccc2)c1,inactive: 0.937
20,COC(=O)Nc1nc2ccc(S(=O)c3ccccc3)cc2[nH]1 (stereo not drawn),inactive: 0.868

row,SMILES,relative growth
1,Cc1ccc(S(=O)(=O)N(C)C[C@H]2Oc3cc(C#Cc4ccncc4)ccc3S(=O)(=O)N([C@H](C)CO)C[C@@H]2C)cc1,inactive: 1.05
2,C[C@@H]1CN([C@H](C)CO)S(=O)(=O)c2ccc(C#CC(C)(C)O)cc2O[C@H]1CN(C)C(=O)CN(C)C,inactive: 0.988
3,C[C@H](CO)N1C[C@H](C)[C@@H](CN(C)Cc2ccc(Cl)c(Cl)c2)OCCCC[C@H](C)Oc2ccc(NC(=O)Nc3ccccc3)cc2C1=O,inactive: 1.03
4,C[C@@H]1CCCCO[C@@H](CN(C)C(=O)Nc2ccc(C(F)(F)F)cc2)[C@H](C)CN([C@H](C)CO)C(=O)c2cc(NC(=O)NC3CCCCC3)ccc2O1,inactive: 1.02
5,C[C@@H]1CCCCO[C@H](CN(C)S(=O)(=O)c2ccc(F)cc2)[C@@H](C)CN([C@@H](C)CO)C(=O)c2cc(NS(C)(=O)=O)ccc2O1,inactive: 1.01
6,C[C@@H]1CN([C@@H](C)CO)C(=O)c2cc(NS(=O)(=O)c3ccc(F)cc3)ccc2O[C@@H]1CN(C)Cc1ccc(Oc2ccccc2)cc1,inactive: 0.987
7,CC(C)(C)S(=O)N1Cc2cc(C(=O)NCc3ccc4c(c3)OCO4)nc(-c3cccc(C#CCC4CCCC4)c3)c2[C@@H]1CCO (stereo partly drawn),inactive: 1.01
8,COc1ccc2c3c([nH]c2c1)[C@H](CO)N(C[C@]13CCN(CC1)CC1CCCCC1)C(=O)Nc1cccc(c1)F,inactive: 1.02
9,C[C@@H]1CN([C@@H](C)CO)C(=O)c2cccc(NS(=O)(=O)c3ccc(F)cc3)c2O[C@@H]1CN(C)C(=O)Nc1ccc(C(F)(F)F)cc1,inactive: 0.992
10,CCCC(=O)Nc1ccc2c(c1)C(=O)N(C)C[C@H](OC)[C@@H](C)CN(S(=O)(=O)c1cn(C)cn1)[C@H](C)CO2,inactive: 0.975
11,COc1ccc(S(=O)(=O)N(C)C[C@@H]2Oc3c(NC(=O)Nc4cccc5ccccc45)cccc3C(=O)N([C@@H](C)CO)C[C@@H]2C)cc1,inactive: 1.04
12,C[C@H](NC(=O)C[C@H]1C[C@@H]2c3cc(NC(=O)Nc4ccc(C(F)(F)F)cc4)ccc3O[C@@H]2[C@H](CO)O1)c1ccccc1,inactive: 0.959
13,CC(C)NC(=O)N(C)C[C@H]1Oc2c(NS(=O)(=O)c3ccccc3)cccc2C(=O)N([C@@H](C)CO)C[C@H]1C,inactive: 1.04
14,C[C@H]1CN([C@@H](C)CO)C(=O)Cc2cc(NC(=O)Nc3ccc(F)cc3)ccc2O[C@H]1CN(C)S(=O)(=O)c1ccc(Oc2ccccc2)cc1,inactive: 1.04
15,Cc1ccc(S(=O)(=O)Nc2ccc3c(c2)C(=O)N([C@@H](C)CO)C[C@H](C)[C@@H](CN(C)C(=O)Nc2ccc(F)cc2)OCCCC[C@H](C)O3)cc1,inactive: 1.04
16,COc1ccc(S(=O)(=O)Nc2ccc3c(c2)C(=O)N([C@@H](C)CO)C[C@@H](C)[C@@H](CN(C)S(=O)(=O)c2cn(C)cn2)O3)cc1,inactive: 0.994
17,Cc1noc(C)c1S(=O)(=O)Nc1cccc2c1O[C@@H](CN(C)Cc1ccc(C(=O)O)cc1)[C@@H](C)CN([C@H](C)CO)C2=O,inactive: 0.988
18,Cn1cnc(S(=O)(=O)N[C@@H]2C=C[C@@H](CC(=O)N3CCN(c4ccccc4)CC3)O[C@@H]2CO)c1,inactive: 0.998
19,Cc1noc(C)c1S(=O)(=O)N(C)C[C@H]1Oc2ccc(NC(=O)Nc3ccc4c(c3)OCO4)cc2C(=O)N([C@@H](C)CO)C[C@H]1C,inactive: 1.01
20,C[C@H](CO)N1C[C@H](C)[C@H](CN(C)Cc2ccc(C(=O)O)cc2)OCCCC[C@H](C)Oc2ccc(NS(=O)(=O)c3ccc(Cl)cc3)cc2C1=O,inactive: 1.02

row,SMILES,relative growth
1,C[C@H]1CN([C@@H](C)CO)C(=O)Cc2cc(NC(=O)C3CCCCC3)ccc2O[C@H]1CN(C)S(C)(=O)=O,inactive: 1.03
2,C[C@@H]1CN([C@H](C)CO)C(=O)Cc2cc(NC(=O)Cn3cnnn3)ccc2O[C@H]1CN(C)S(=O)(=O)c1ccc(Cl)cc1,inactive: 0.998
3,COCCOC(=O)N1C(=O)[C@@]2(c3cc(C#CC4=CCCCC4)ccc31)[C@H](C(=O)N1CCN(c3ncccn3)CC1)[C@H]1C(=O)O[C@H](c3ccccc3)[C@H](c3ccccc3)N1[C@@H]2c1ccc(OCCO)cc1,inactive: 1.08
4,C/C(Cc1ncn(-c2cc(C)on2)n1)=N\O,inactive: 1.02
5,O=C(C[C@@H]1CC[C@@H](NS(=O)(=O)c2ccc(F)cc2)[C@@H](CO)O1)NCc1ccc(Cl)c(Cl)c1,inactive: 0.958
6,COc1ccccc1S(=O)(=O)N[C@@H]1CC[C@@H](CCNC(=O)C2CC2)O[C@H]1CO,inactive: 1.02
7,O=C(N/N=C/[C@H](O)[C@@H](O)[C@H](O)[C@H](O)CO[C@H]1O[C@H](CO)[C@H](O)[C@H](O)[C@H]1O)c1ccccn1,inactive: 1.01
8,C[C@@H]1CCCCO[C@@H](CN(C)C(=O)NC2CCCCC2)[C@H](C)CN([C@@H](C)CO)C(=O)c2cc(NC(=O)c3ccccc3)ccc2O1,inactive: 1.01
9,COCCOC(=O)N1C(=O)[C@@]2(c3cc(C#Cc4ccc(OC)cc4)ccc31)[C@H](C(=O)N1CCN(c3ncccn3)CC1)[C@H]1C(=O)O[C@H](c3ccccc3)[C@H](c3ccccc3)N1[C@@H]2c1ccc(OCCO)cc1,inactive: 1.08
10,COc1ccc(CN(C)C[C@@H]2OCCCC[C@@H](C)Oc3ccc(NC(=O)c4ccncc4)cc3C(=O)N([C@@H](C)CO)C[C@H]2C)cc1,inactive: 0.917
11,C[C@H](CO)N1C[C@H](C)[C@H](CN(C)Cc2ccncc2)Oc2c(NS(=O)(=O)c3ccc(F)cc3)cccc2C1=O,inactive: 1.03
12,COc1ccc(CN(C)C[C@H]2OCCCC[C@H](C)Oc3ccc(NC(=O)C4CCCCC4)cc3C(=O)N([C@@H](C)CO)C[C@@H]2C)cc1,inactive: 0.972
13,COc1ccc(NC(=O)Nc2ccc3c(c2)C(=O)N([C@@H](C)CO)C[C@@H](C)[C@@H](CN(C)S(=O)(=O)c2cn(C)cn2)O3)cc1,inactive: 1.02
14,COc1ccc(CNC(=O)C[C@@H]2CC[C@H]3[C@@H](COC[C@H](O)CN3S(=O)(=O)c3ccc(C)cc3)O2)cc1OC,inactive: 0.972
15,CC(C)(C)NCc1ccccc1F,inactive: 1.03
16,C[C@@H]1CN([C@@H](C)CO)C(=O)c2cccc(NC(=O)C3CCOCC3)c2O[C@H]1CN(C)C(=O)NC1CCCCC1,inactive: 0.928
17,Cc1noc(C)c1S(=O)(=O)Nc1ccc2c(c1)CC(=O)N([C@@H](C)CO)C[C@@H](C)[C@H](CN(C)C(=O)NC1CCCCC1)O2,inactive: 0.962
18,C[C@H](CO)N1C[C@H](C)[C@H](CN(C)Cc2ccncc2)Oc2ccc(NS(=O)(=O)c3cn(C)cn3)cc2CC1=O,inactive: 0.998
